{
  "source": "the supplement of paper PMC10126150",
  "note": "Values marked as one replicate rest on one cluster of the flow cell; about a third of the high ones do not repeat.",
  "data": [
    {"tested_on": "ATP", "test": "switch fluorescence ratio, 500 uM ATP over buffer (Cy3 cluster intensity, sum of 5 cycles each) (fold (ratio)); higher = stronger signal-on switching upon ATP binding; sequences stand for … in TCGTCGGCAGCGTCAGATGTGTATAAGAGACAGTTTTTTTTTTTTTTTTTTTTTTTTT…TC", "settings": "aptamer strand: ATP DNA aptamer (quencher-CACCTGGGGGAGTATTGCGGAGGAAGG + anchor), 100 nM annealed; ATP concentration: 500 uM; one replicate", "in_short": "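Exposure to 500 uM ATP lasted 15 min at 22 °C before imaging, and a selection-buffer image was taken beforehand, for Cy3-labelled switching-strand clusters on a modified Illumina MiSeq flow-cell annealed to 100 nM quencher-labelled ATP aptamer. Five buffer/ATP cycles were run with NaOH stripping and re-annealing between them. The fluorescence ratio per cluster is summed target-cycle over summed buffer-cycle Cy3 intensity, averaged per switch-domain sequence. Clusters outside 100-1000 RFU were excluded.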", "values": [
      {"sequence": "CTGTGCTCAA", "switch fluorescence ratio": 1.06},
      {"sequence": "CTGTGGGAGG", "switch fluorescence ratio": 0.987},
      {"sequence": "CTGTGTGCGC", "switch fluorescence ratio": 1.01},
      {"sequence": "CTGTGTGCTG", "switch fluorescence ratio": 1.06},
      {"sequence": "CTGTTAAAGC", "switch fluorescence ratio": 1.04},
      {"sequence": "CTGTTAAGGT", "switch fluorescence ratio": 1.01},
      {"sequence": "CTGTTAAGTC", "switch fluorescence ratio": 1.03},
      {"sequence": "CTGTTACATG", "switch fluorescence ratio": 0.972},
      {"sequence": "CTGTTATC", "switch fluorescence ratio": 1.02},
      {"sequence": "CTGTTATTC", "switch fluorescence ratio": 1.01},
      {"sequence": "CTGTTCACG", "switch fluorescence ratio": 0.964},
      {"sequence": "CTGTTCCCCA", "switch fluorescence ratio": 1.01},
      {"sequence": "CTGTTCGTCC", "switch fluorescence ratio": 1.02},
      {"sequence": "CTGTTCTGCC", "switch fluorescence ratio": 0.975},
      {"sequence": "CTGTTGAAAC", "switch fluorescence ratio": 2.26},
      {"sequence": "CTGTTGAGTC", "switch fluorescence ratio": 1.02},
      {"sequence": "CTGTTGCAGC", "switch fluorescence ratio": 1.13},
      {"sequence": "CTGTTGTCAG", "switch fluorescence ratio": 1.03},
      {"sequence": "CTGTTTG", "switch fluorescence ratio": 0.936},
      {"sequence": "CTGTTTGGTG", "switch fluorescence ratio": 0.95},
      {"sequence": "CTGTTTTGAG", "switch fluorescence ratio": 1},
      {"sequence": "CTTAACACTG", "switch fluorescence ratio": 0.998},
      {"sequence": "CTTAACGCCA", "switch fluorescence ratio": 1.08},
      {"sequence": "CTTAATCCTA", "switch fluorescence ratio": 0.994},
      {"sequence": "CTTAATGCAC", "switch fluorescence ratio": 1.07},
      {"sequence": "CTTAATTCTT", "switch fluorescence ratio": 1.06},
      {"sequence": "CTTACAATTG", "switch fluorescence ratio": 1.01},
      {"sequence": "CTTACAGGGC", "switch fluorescence ratio": 1},
      {"sequence": "CTTACAT", "switch fluorescence ratio": 0.971},
      {"sequence": "CTTACCCCGC", "switch fluorescence ratio": 3.69},
      {"sequence": "CTTACGACGT", "switch fluorescence ratio": 1.09},
      {"sequence": "CTTACGGGGC", "switch fluorescence ratio": 1.07},
      {"sequence": "CTTACTCTAT", "switch fluorescence ratio": 1.1},
      {"sequence": "CTTACTGGTC", "switch fluorescence ratio": 1.03},
      {"sequence": "CTTAGACACC", "switch fluorescence ratio": 0.889},
      {"sequence": "CTTAGACAG", "switch fluorescence ratio": 0.962},
      {"sequence": "CTTAGACCA", "switch fluorescence ratio": 1},
      {"sequence": "CTTAGACCGG", "switch fluorescence ratio": 1.01},
      {"sequence": "CTTAGAGACA", "switch fluorescence ratio": 0.953},
      {"sequence": "CTTAGCGCAG", "switch fluorescence ratio": 0.972},
      {"sequence": "CTTAGGCACG", "switch fluorescence ratio": 1.08},
      {"sequence": "CTTAGGGCC", "switch fluorescence ratio": 0.975},
      {"sequence": "CTTAGGTTAA", "switch fluorescence ratio": 0.96},
      {"sequence": "CTTATACTAT", "switch fluorescence ratio": 1.04},
      {"sequence": "CTTATATGTT", "switch fluorescence ratio": 0.961},
      {"sequence": "CTTATCAACG", "switch fluorescence ratio": 1.02},
      {"sequence": "CTTATCGTAT", "switch fluorescence ratio": 0.952},
      {"sequence": "CTTATGAGGA", "switch fluorescence ratio": 1.02},
      {"sequence": "CTTATGATTA", "switch fluorescence ratio": 0.947},
      {"sequence": "CTTATGTCGA", "switch fluorescence ratio": 0.953},
      {"sequence": "CTTATTGTGG", "switch fluorescence ratio": 0.995},
      {"sequence": "CTTATTTGCA", "switch fluorescence ratio": 1.04},
      {"sequence": "CTTATTTTA", "switch fluorescence ratio": 0.998},
      {"sequence": "CTTCAAAATT", "switch fluorescence ratio": 1.02},
      {"sequence": "CTTCAACGAT", "switch fluorescence ratio": 1.04},
      {"sequence": "CTTCAACGC", "switch fluorescence ratio": 1.51},
      {"sequence": "CTTCACATGA", "switch fluorescence ratio": 1},
      {"sequence": "CTTCACGATC", "switch fluorescence ratio": 1.26},
      {"sequence": "CTTCAGGGCC", "switch fluorescence ratio": 0.979},
      {"sequence": "CTTCAGTTTC", "switch fluorescence ratio": 0.997},
      {"sequence": "CTTCATAGGT", "switch fluorescence ratio": 1.02},
      {"sequence": "CTTCATGAAT", "switch fluorescence ratio": 1},
      {"sequence": "CTTCATTCTT", "switch fluorescence ratio": 0.998},
      {"sequence": "CTTCCGAGGA", "switch fluorescence ratio": 1.57},
      {"sequence": "CTTCCTATGA", "switch fluorescence ratio": 1.19},
      {"sequence": "CTTCCTCCGG", "switch fluorescence ratio": 2.44},
      {"sequence": "CTTCCTCTTG", "switch fluorescence ratio": 2.21},
      {"sequence": "CTTCGCTAAT", "switch fluorescence ratio": 3.97},
      {"sequence": "CTTCGTGTGC", "switch fluorescence ratio": 1.13},
      {"sequence": "CTTCTAGACT", "switch fluorescence ratio": 0.994},
      {"sequence": "CTTCTCTTAA", "switch fluorescence ratio": 0.97},
      {"sequence": "CTTCTTGGCA", "switch fluorescence ratio": 1.09},
      {"sequence": "CTTCTTTTC", "switch fluorescence ratio": 1},
      {"sequence": "CTTGAAGGAC", "switch fluorescence ratio": 1.1},
      {"sequence": "CTTGACTGGT", "switch fluorescence ratio": 0.984},
      {"sequence": "CTTGAGCAGA", "switch fluorescence ratio": 1.13},
      {"sequence": "CTTGAGGAAA", "switch fluorescence ratio": 0.997}
    ]}
  ]
}
